From the supplement of paper PMC4967469
The IC50 comes from the fitted curve, where viability falls to half of the control; a fit beyond the top or the lowest dose is shown as a bound at that dose. For AUC the same curve is integrated over the 256-fold range of doses and scaled to a fraction; the more sensitive the line, the further below 1. For some assays here: Any top dose called inferred was derived from the fitted curves, not read from the paper. For some assays here: Where an entry number is given, a second screen of the drug exists; the two often differ.

Legend:
Experiment in all cases: Viability of human cancer cell lines after 72 h of drug (GDSC screen)
SNX-2112 = compound: CC1(C)CC(=O)c2c(C(F)(F)F)nn(-c3ccc(C(N)=O)c(N[C@H]4CC[C@H](O)CC4)c3)c2C1 [SNX-2112]; conditions: top dose 2.56 µM
Procedure: (§1)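 Human cancer cell lines in 384-well plates, medium with 10% serum, drug for 72 h over a 256-fold dose range (nine 2-fold or five 4-fold steps up to the top dose). Adherent lines were fixed and stained with the nucleic acid dye Syto60, suspension lines read with resazurin; signal relative to control wells, capped at 0 and 100%. One two-parameter sigmoid per drug and line, fitted in a mixed model over all curves with the slope shared within a line.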

Vinblastine = compound: CC[C@]1(O)C[C@@H]2CN(CCc3c([nH]c4ccccc34)[C@@](C(=O)OC)(c3cc4c(cc3OC)N(C)[C@H]3[C@@](O)(C(=O)OC)[C@H](OC(C)=O)[C@]5(CC)C=CCN6CC[C@]43[C@@H]65)C2)C1 [Vinblastine]; conditions: top dose 0.1 µM; top dose inferred
Procedure: as §1

Afatinib = compound: CN(C)C/C=C/C(=O)Nc1cc2c(Nc3ccc(F)c(Cl)c3)ncnc2cc1O[C@H]1CCOC1 [Afatinib]
Procedure: as §1

PF-562271 = compound: CN(c1ncccc1CNc1nc(Nc2ccc3c(c2)CC(=O)N3)ncc1C(F)(F)F)S(C)(=O)=O [PF-562271]; conditions: top dose 2.56 µM; top dose inferred
Procedure: as §1

XMD13-2 = compound: O=C(NC1CC1)c1cccc(-c2ccc3c(NC(=O)C4CC4)n[nH]c3c2)c1 [XMD13-2]; conditions: top dose 10.24 µM; top dose inferred
Procedure: as §1

[1] = top dose 0.5 µM, screen: GDSC drug entry 1032
[2] = top dose 10 µM, screen: GDSC drug entry 1377, top dose inferred

Row | Cell Line | AUC (SNX-2112) | IC50 (SNX-2112) [nM] | AUC (Vinblastine) | IC50 (Vinblastine) [nM] | AUC (Afatinib; [1]) | IC50 (Afatinib; [1]) [nM] | AUC (Afatinib; [2]) | IC50 (Afatinib; [2]) [nM] | AUC (PF-562271) | IC50 (PF-562271) [nM] | AUC (XMD13-2) | IC50 (XMD13-2) [nM]
1 | SK-N-FI (neuroblastoma, adherent) | 0.833 | 1630 | 0.946 | > 100 | 0.981 | > 500 | 0.986 | > 10000 | 0.988 | > 2560 | 0.908 | > 10200
2 | SK-N-SH (neuroblastoma, adherent) | 0.685 | 523 | 0.785 | 42.3 | 0.987 | > 500 | 0.961 | > 10000 | 0.915 | > 2560 | 0.976 | > 10200
3 | SK-PN-DW (Ewing sarcoma, adherent) | 0.574 | 256 | 0.454 | 4.67 | 0.986 | > 500 | 0.952 | > 10000 | 0.892 | > 2560 | 0.86 | 9130
4 | SK-UT-1 (soft tissue, adherent) | 0.886 | 2390 | 0.546 | 8.24 | 0.988 | > 500 | 0.984 | > 10000 | 0.833 |  | 0.952 | > 10200
5 | SKG-IIIa (cervix, adherent) | 0.977 | > 2560 | 0.629 | 16.1 | 0.915 | > 500 | 0.918 | > 10000 | 0.936 | > 2560 | 0.983 | > 10200
6 | SKN (uterus, adherent) | 0.641 | 428 | 0.454 | 4.56 | 0.961 | > 500 | 0.874 | > 10000 | 0.962 | > 2560 | 0.933 | > 10200
7 | SKN-3 (head and neck, adherent) | 0.568 | 254 | 0.552 | 8.89 | 0.837 | 423 | 0.953 | > 10000 | 0.966 | > 2560 | 0.958 | > 10200
8 | SLVL (B-cell lymphoma, suspension) | 0.224 | 23.6 | 0.738 | 31.3 | 0.984 | > 500 | 0.968 | > 10000 | 0.906 | > 2560 | 0.76 | 3820
9 | SNB75 (glioma, adherent) | 0.958 | > 2560 | 0.585 | 11.9 | 0.979 | > 500 | 0.927 | > 10000 | 0.824 | > 2560 | 0.975 | > 10200
10 | SNG-M (endometrium, adherent) | 0.415 | 94 | 0.471 | 5.23 | 0.929 | > 500 | 0.837 | 6480 | 0.934 | > 2560 | 0.882 | > 10200
11 | SNU-182 (liver, adherent) | 0.633 | 379 | 0.355 | 2.44 | 0.941 | > 500 | 0.911 | > 10000 | 0.934 | > 2560 | 0.948 | > 10200
